In the supplement of paper PMC10441789:
The other results are listed elsewhere or left out. Antibody binding of pooled human sera (four to six donors per pool; dilution not stated) to peptides of the Trypanosoma cruzi antigen TSSA on microarrays. Quantile-normalised fluorescence in arbitrary units, mean of duplicate arrays; higher = more binding. No active / inactive call. The uninfected pools are read here as the healthy donors of the same country. The strongest signals lie near the top of the scale (about 60,000).

Assays:
Experiment in all cases: antibody binding signal (normalised fluorescence) (arbitrary fluorescence units); higher = stronger serum antibody binding to peptide
[1] = system: pooled sera of chronic Chagas disease patients, Argentina
Procedure: (§1)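 Microarray of 15-residue peptides over residues 30-55 of Trypanosoma cruzi TSSAII, each with 1 to 10 substitutions at naturally variable positions, probed with one serum pool per country.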

[2] = system: pooled sera of chronic Chagas disease patients, Bolivia
Procedure: as §1

[3] = system: pooled sera of chronic Chagas disease patients, Brazil
Procedure: as §1

[4] = system: pooled sera of chronic Chagas disease patients, Colombia
Procedure: as §1

[5] = system: pooled sera of chronic Chagas disease patients, Mexico
Procedure: as §1

[6] = system: pooled sera of chronic Chagas disease patients, USA
Procedure: as §1

[7] = system: pooled sera of uninfected people, Argentina
Procedure: as §1

[8] = system: pooled sera of uninfected people, Bolivia
Procedure: as §1

[9] = system: pooled sera of uninfected people, Brazil
Procedure: as §1

[10] = system: pooled sera of uninfected people, Colombia
Procedure: as §1

[11] = system: pooled sera of uninfected people, Mexico
Procedure: as §1

[12] = system: pooled sera of uninfected people, USA
Procedure: as §1

Sequence	antibody binding signal [1]	antibody binding signal [2]	antibody binding signal [3]	antibody binding signal [4]	antibody binding signal [5]	antibody binding signal [6]	antibody binding signal [7]	antibody binding signal [8]	antibody binding signal [9]	antibody binding signal [10]	antibody binding signal [11]	antibody binding signal [12]
DKKPATGETPSPPGA	28700	22300	29800	121	170	22200	158	446	256	210	1510	415
KEKKAATGEAPSQSG	12000	11900	20600	162	201	19100	285	83.5	102	167	92.6	134
KKTATGGAPSQPGAS	934	259	383	994	350	311	322	138	110	88.9	129	235
TSSTPPSGKDNKTAA	16200	6370	5200	2360	18200	3430	1290	364	148	205	113	304
KEKKPATGGTPSPPG	338	226	152	547	196	263	159	97.7	202	108	81.9	331
GTDKKTATGETPSQS	666	712	2550	1160	355	7130	278	344	321	135	205	108
SGKDKKPAAGEAPSP	995	635	6010	988	908	10000	123	110	127	891	92.6	95.3
GTEKKPATGGAPSPS	4050	371	1960	5530	4090	4150	336	1590	534	119	271	1240
GKDNKPAAGGAPSPP	1740	373	2190	2670	4010	2250	265	512	93.4	122	133	135
KKTATGGAPSQSGAS	1320	221	630	927	512	650	338	271	99.9	87.6	98.3	226
TPPSGKDNKPATGGA	17400	1010	27400	493	38200	13400	987	1490	226	211	185	305
PPSGTDKKTAAGETP	3960	7630	15300	2440	27200	1480	251	401	309	700	1220	183
KKPATGGTPSQSGAS	383	321	258	396	335	181	339	254	340	136	238	312
GTDKKPATGGTPSPP	596	350	1820	5920	989	634	254	567	966	215	855	144
GTENKTAAGETPSPP	30900	772	1080	1840	2740	2980	206	400	159	246	232	439
SGKDNKPATGEAPSQ	46300	50600	51300	506	401	44400	1160	1150	331	314	420	162
TPPSGTEKKTATGEA	28900	16700	25400	256	8200	1540	621	199	363	108	116	118
GKDNKPATGGAPSPS	1590	2010	3020	1660	2740	3640	340	1090	120	170	138	128
DKKTAAGETPSPPGA	276	230	309	314	371	2040	141	208	144	501	473	285
KKPAAGEAPSQSGAS	226	3710	10700	185	145	10400	243	141	99	93.8	92.3	261
PSGKDKKTATGGTPS	2420	595	1990	4620	3850	4220	190	267	98.2	102	84.3	93.7
PSGTDKKAAAGEAPS	2570	627	9590	6760	2380	11200	197	512	192	387	1710	250
TPPSGTDNKTATGET	38300	33700	39600	1110	11200	7770	447	412	341	225	127	133
GKDNKTATGGAPSQS	670	262	928	2450	1390	1340	239	141	119	187	85.8	154
SSTPPSGKENKAAAG	34800	4260	9270	424	6120	2410	3120	989	145	772	126	385
